In PubChem BioAssay AID624171 (National Center for Advancing Translational Sciences (NCATS), 2012):
Hit rate of the full screen: of about 410,000 compounds, about 1,200 (0.29%) were called active. Inconclusive means that the source gave no clear call. Such entries were picked first, then a sample of the others. Calls follow the shape of the dose curve; as a rule, active = well fitted activation curve with a large enough effect; inconclusive = small, poorly fitted or top-dose-only effect; inactive = flat fitted curve, though single readings scatter. A potency beside an inconclusive call is a rough fit, not a confirmed value.

Experiment: qHTS of Nrf2 Activators; also: nearly all actives have a fitted effect of over 65% in size; as to activation: % of control where 0% means no effect
Settings: AREc32 ARE-luciferase reporter (MCF7-derived line), luminescence, 24 h; activation: at 46.1 µM (top of the series)
Procedure, shortened: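 Luminescent ARE reporter assay in AREc32_Fluc cells: overnight plating at 37 deg C, 24 hr compound incubation, Steady-Glo added, 30 min RT before reading.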
Potency is read from the fitted curve at half-maximal effect; tags tell the direction and shape of the fitted curve.

Structure (SMILES)	activation	Potency
CNC(=O)C[C@H]1C(=O)N(c2ccccc2)C[C@@H]1C	inactive: -0.374%	–
OCCCNc1ncnc2scc(-c3ccc(Cl)cc3)c12	inactive: -0.492%	–
O=c1oc2ccccc2nc1/C=C(\O)c1ccccc1	–	inconclusive: 15.8 µM [activator, partial curve, poor fit]
O=C(/C=C/c1cccc(O)c1)c1cccnc1	–	inconclusive: 35.5 µM [activator, partial curve, poor fit]
NNc1ncnc2scc(-c3ccc(Cl)cc3)c12	inactive: 3.27%	–
COc1cc(C(Nc2ccccn2)c2ccc3ccc(C)nc3c2O)cc(OC)c1O (centres undefined)	–	inconclusive: 22.4 µM [activator, single point]
O=C(Nc1ccccc1O)c1ccc([N+](=O)[O-])cc1	–	inconclusive: 12.6 µM [activator, partial curve, poor fit]
O=C(CC(O)c1ccncc1)c1ccccc1O (centres undefined)	–	inconclusive: 15.8 µM [activator, single point]
Cc1cccc2sc(NC(=O)C3CC3)nc12	–	inconclusive: 15.8 µM [activator, single point]
COCCn1c(=NC(=O)c2ccc(S(=O)(=O)N3CCOCC3)cc2)sc2cc(S(N)(=O)=O)ccc21	inactive: 0.061%	–
O=c1cnnc(N/N=C/c2c[nH]c3ccccc23)[nH]1	–	active: 12.6 µM
O=C(Nc1cnc2sccn2c1=O)c1ccccc1Cl	–	active: 11.2 µM
CCC(=O)c1c[nH]c(C(=O)NCCCN2CCOCC2)c1	inactive: 6.09%	–
Cc1ccc(S(=O)(=O)c2cn(CC(=O)Nc3ccccc3C)c3cc4c(cc3c2=O)OCO4)cc1	inactive: -1.2%	–
COc1ccc(N=Cc2sc(O)c3ccccc23)cc1	–	inconclusive: 17.8 µM [activator, partial curve, poor fit]
COc1ccc(CCNC(=O)CSc2ccc(-c3ccco3)nn2)cc1OC	–	inconclusive: 20 µM [activator, single point]
C=C(C(=O)c1ccccc1)C(C)C(=C)C(=O)c1ccccc1	–	inconclusive: 3.16 µM [activator, partial curve, poor fit]
O=C1c2ccccc2C(=O)C1c1ccc2ccccc2n1	–	inconclusive: 0.562 µM [activator, full curve, poor fit]
Cc1ccc(N/C(C(Cl)=C(Cl)Cl)=C(/Cl)[N+](=O)[O-])c(C)c1	–	active: 22.4 µM
Cc1cc(C(=O)c2ccc(Cl)cc2)c(NC(=O)CCl)s1	–	inconclusive: 31.6 µM [activator, single point]
COc1ccc(C(N)=O)cc1NC(=O)c1cccc(F)c1	–	inconclusive: 1.78 µM [activator, full curve, poor fit]
O=C(Nc1ccc(O)c(-c2nc3ccccc3s2)c1)c1cccs1	–	inconclusive: 2.51 µM [activator, full curve, poor fit]
Cn1c(SCC(=O)N/N=C/C=C\c2ccccc2[N+](=O)[O-])nc2ccccc21	–	inconclusive: 0.316 µM [activator, full curve]
CC(=O)c1c(C)[nH]c(C(=O)Nc2cccc(S(=O)(=O)N(C)C)c2)c1C	inactive: 21.2%	–
Cc1ccc(-n2nc3c(=O)n(CC(=O)NCCc4ccccc4C)nc(C)c3c2C)cc1	inactive: -0.252%	–

Structure (SMILES)	activation	Potency
C=CCNC(=O)/C(C#N)=C/c1cc(Br)ccc1OC	–	inconclusive: 25.1 µM [activator, single point]
Cn1cc(C(=O)N/N=C/C(Br)=C/c2ccccc2)ccc1=O	–	inconclusive: 3.16 µM [activator, partial curve, poor fit]
O=C(NN1C(=O)C2C(c3ccccc3)C=CC(c3ccccc3)C2C1=O)c1cccc(Br)c1 (centres undefined)	–	active: 11.2 µM
O=[N+]([O-])c1ccc(Sc2nccn2Cc2ccccc2)c([N+](=O)[O-])c1	–	inconclusive: 22.4 µM [activator, single point]
O=C(O)CCCN1C(=O)/C(=C\c2ccco2)SC1=S	inactive: 5.9%	–
CCCCCC(=O)Nc1cccc(C2=NOC3(C2)C[C@@H](C(N)=O)N(C(=O)Cc2ccc([N+](=O)[O-])cc2)C3)c1 (some centres undefined)	inactive: 0.387%	–
O=C(NCC1CC1)c1cccs1	inactive: 0.435%	–
O=C(Nc1cccc(Cl)c1Cl)c1ccc2c(c1)N(Cc1cccc(Cl)c1)C(=O)c1ccccc1S2=O (centres undefined)	inactive: 0.225%	–
CCn1c2ccccc2c2cc(CN3CCN(Cc4cc(OC)c(O)c(OC)c4)CC3)ccc21	–	inconclusive: 14.1 µM [activator, single point]
O=C(O)CCN1C(=O)/C(=C\c2cccc(OCC(=O)Nc3ccc(Cl)cc3)c2)SC1=S	–	inconclusive: 10 µM [activator, partial curve]
CC(C)(C)C(=O)COc1ccccc1[N+](=O)[O-]	–	inconclusive: 22.4 µM [activator, single point]
COc1ccc(OC)c(NC(=O)Cn2c(=O)c3cccn3c3ccccc32)c1	inactive: 6.21%	–
CCOC(=O)C1CCN(C(=O)c2nn(-c3ccc(OC)c(Cl)c3)c(=O)c3c2c2ccccc2n3C)CC1	inactive: 4.87%	–
COc1ccc(/C=C2\COc3ccccc3C2=O)c(OC)c1	–	inconclusive: 22.4 µM [activator, single point]
O=C(COc1ccccc1/C=C1\SC(=S)NC1=O)Nc1ccc(F)cc1	–	inconclusive: 11.2 µM [activator, partial curve]
CCOc1ccc(C(=O)c2cn(CC(=O)Nc3ccc4c(c3)OCO4)c3ccc(OC)cc3c2=O)cc1	inactive: -0.63%	–
CC(=O)Nc1ccc2c(c1)Cc1cc(N3C(=O)C=CC3=O)ccc1-2	–	inconclusive: 5.62 µM [activator, single point]
COc1ccc(CCC(C)NCc2cc(OC)cc(OC)c2)cc1 (centres undefined)	inactive: 0.474%	–
CC1CCCCN1CCNC(=O)c1ccc2c(=O)n(Cc3ccc(Cl)cc3)c(=S)[nH]c2c1 (centres undefined)	inactive: 9%	–
COc1ccc(NC(=O)c2ccc([N+](=O)[O-])s2)c([N+](=O)[O-])c1	–	active: 10 µM
CCOC(=O)C1=C(COC(=O)/C=C/c2ccccc2F)NC(=O)NC1C (centres undefined)	–	inconclusive: 25.1 µM [activator, single point]
O=C(Nc1ccc(Nc2ccccc2)cc1)c1cc([N+](=O)[O-])ccc1Cl	–	inconclusive: 15.8 µM [activator, single point]
O=C(O)/C=C\C(=O)Nc1ccccc1C#Cc1ccc(Br)cc1	–	inconclusive: 3.16 µM [activator, partial curve, poor fit]
O=[N+]([O-])c1cccc(-c2nc(-c3ccccc3)no2)c1	–	active: 3.98 µM
O=C(NC(=S)Nc1cccc(O)c1)c1ccco1	–	active: 11.2 µM

Structure (SMILES)	activation	Potency
COC(=O)c1ccsc1NC(=O)CCS(=O)(=O)c1ccc(Cl)cc1	–	active: 15.8 µM
c1coc(-c2nc(-c3ccco3)c(-c3ccco3)nc2-c2ccco2)c1	–	inconclusive: 3.55 µM [activator, full curve]
Clc1cccc(Cc2c(-c3ccccc3)nc3c4ccccc4ccn23)c1	–	active: 5.01 µM
COc1ccccc1N1CCN(C(=O)c2cc(-c3ccc(C)c(F)c3)on2)CC1	inactive: 2.65%	–
O=[N+]([O-])c1ccc(Cl)cc1CN1CCCCCC1	inactive: -0.303%	–
O=C(Nc1ccn(Cc2c(F)c(F)cc(F)c2F)n1)c1ccc(COc2cc(Cl)ccc2Cl)o1	inactive: -0.775%	–
Oc1c(CN2CCCC(C(F)(F)F)C2)cc(Cl)c2ccccc12 (centres undefined)	–	inconclusive: 20 µM [activator, single point]
O=S(=O)(c1ccc(F)cc1)c1nc(-c2ccco2)oc1Nc1ccc(F)cc1	–	inconclusive: 28.2 µM [activator, single point]
Clc1nc(-c2cccnc2)nc2scc(-c3ccccc3)c12	–	inconclusive: 7.08 µM [activator, partial curve, poor fit]
CCOC(=O)Cc1nn(Cc2nc(-c3ccc(C#N)cc3)cs2)c(=O)c2ccccc12	inactive: 1.73%	–
COc1cc(CN2C[C@@H](CO)O[C@@H](n3cnc4c(Nc5ccccc5)ncnc43)C2)cc(OC)c1OC	–	inconclusive: 11.2 µM [activator, single point]
N#C/C(=C\C=C\c1ccccc1)C(=O)NCc1ccco1	–	inconclusive: 15.8 µM [activator, partial curve, poor fit]
CCOc1ccc(/C=N/NC(=O)c2cc3c(OC)cc(OC)cc3[nH]2)cc1OC	inactive: 0.0844%	–
Cc1nc2ccccc2c(=O)n1NC(=O)c1cc(Br)ccc1Cl	–	inconclusive: 11.2 µM [activator, partial curve]
CN(C)Cc1csc(Nc2ccc(C(=O)c3ccccc3)cc2)n1	inactive: 6.35%	–
Cc1ccc(C)c(C(=O)COc2ccc(C)nc2[N+](=O)[O-])c1	–	inconclusive: 22.4 µM [activator, single point]
COC(=O)C1CCCN1C(=O)c1cccs1 (centres undefined)	inactive: 6.46%	–
O=C(Nc1nc2ccsc2c(=O)s1)C1CCC1	–	inconclusive: 22.4 µM [activator, partial curve, poor fit]
O=C(Nc1ccc2c(c1)C(=O)NC2=O)c1cccc(C(F)(F)F)c1	–	inconclusive: 2.51 µM [activator, partial curve, poor fit]
COc1cc2c(cc1NC(=O)c1ccccc1F)CCCC2	–	active: 3.16 µM
CCOc1cccc(CNCCNC(=O)c2nonc2N)c1	–	inactive
O=C(/C=C/c1ccc([N+](=O)[O-])cc1)OCC(=O)N1CCCCCC1	–	inconclusive: 20 µM [activator, single point]
COc1cc(OC)nc(-n2ncc(Br)c(Br)c2=O)n1	–	inconclusive: 3.55 µM [activator, partial curve, poor fit]
c1ccc2c(Nc3nc4c(s3)CCCC4)cccc2c1	–	inconclusive: 17.8 µM [activator, single point]
